# Experimental data: article PMC4336329 (PLoS ONE, 2015)
# Hit rate of the full screen: of about 310,000 compounds, about 2,200 (0.71%) showed an effect of 50% or more. Effects have a minus sign here. The list shows a part of the results.
# Biological target: human ether-à-go-go-related gene (hERG) potassium channel (human, UniProt Q12809)
# Assay: primary screen, population patch clamp on CHO cells stably expressing hERG
# Sequence of human ether-à-go-go-related gene (hERG) potassium channel (Q12809 whole entry, looked up): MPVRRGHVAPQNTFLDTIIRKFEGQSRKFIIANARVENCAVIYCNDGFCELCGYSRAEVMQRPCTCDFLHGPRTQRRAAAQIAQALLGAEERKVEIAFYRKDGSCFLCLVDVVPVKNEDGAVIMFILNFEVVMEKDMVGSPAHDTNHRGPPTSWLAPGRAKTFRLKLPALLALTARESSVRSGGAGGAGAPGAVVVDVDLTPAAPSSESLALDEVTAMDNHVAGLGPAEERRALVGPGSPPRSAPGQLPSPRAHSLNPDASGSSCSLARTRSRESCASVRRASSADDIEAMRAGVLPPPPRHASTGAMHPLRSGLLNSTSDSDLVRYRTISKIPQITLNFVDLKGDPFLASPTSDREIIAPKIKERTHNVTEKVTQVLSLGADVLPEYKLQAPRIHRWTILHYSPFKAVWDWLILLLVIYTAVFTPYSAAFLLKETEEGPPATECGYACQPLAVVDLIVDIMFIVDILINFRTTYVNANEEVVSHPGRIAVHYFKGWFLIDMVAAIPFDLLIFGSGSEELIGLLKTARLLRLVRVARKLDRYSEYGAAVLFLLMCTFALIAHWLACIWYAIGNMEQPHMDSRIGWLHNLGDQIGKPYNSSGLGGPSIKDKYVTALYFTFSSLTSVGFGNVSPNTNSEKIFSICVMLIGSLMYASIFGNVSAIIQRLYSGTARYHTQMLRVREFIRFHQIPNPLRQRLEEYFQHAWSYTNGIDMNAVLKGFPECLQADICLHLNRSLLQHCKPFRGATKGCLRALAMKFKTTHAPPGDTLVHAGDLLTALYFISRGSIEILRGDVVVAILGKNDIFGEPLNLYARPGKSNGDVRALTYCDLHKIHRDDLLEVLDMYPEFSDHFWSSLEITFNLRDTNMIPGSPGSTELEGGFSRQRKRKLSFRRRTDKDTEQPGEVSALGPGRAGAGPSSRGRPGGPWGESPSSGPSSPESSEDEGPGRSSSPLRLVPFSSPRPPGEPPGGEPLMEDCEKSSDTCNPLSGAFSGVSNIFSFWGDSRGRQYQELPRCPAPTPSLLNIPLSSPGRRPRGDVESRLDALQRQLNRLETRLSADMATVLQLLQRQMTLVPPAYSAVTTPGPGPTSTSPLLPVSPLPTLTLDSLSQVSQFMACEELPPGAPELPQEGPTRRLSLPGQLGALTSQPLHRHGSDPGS
row,SMILES,"hERG current change (%, negative = inhibition) at 1uM [%]"
1,O=C(CCCc1ccccc1)NC1CC1,-1.62
2,Cn1ncc2c(N3CCN(c4ccc(Cl)c(Cl)c4)CC3)ncnc21,-7.39
3,Cc1nc(SCC(=O)OCc2ccccc2)c(C#N)c(-c2ccccc2)c1C(=O)Nc1ccccc1,14.5
4,CCN(CC)S(=O)(=O)c1ccc2oc(C(=O)NCc3ccc(F)cc3)c(C)c2c1,19.7
5,Cc1cc(C)nc(SCC(=O)NCc2ccco2)n1,4.97
6,O=C(Nc1ccccc1)c1ccc(S(=O)(=O)N(CCO)CCO)cc1,9.83
7,CCOC(=O)C1=NN(N=O)C2(CC(=O)N(c3cc(C)cc(C)c3)C2=O)C1 (stereo not drawn),2.87
8,Cc1sc(NC(=O)C2=COCCO2)nc1-c1ccc(F)cc1,19
9,O=C(c1cc2cc([N+](=O)[O-])ccc2oc1=O)N1CCN(C2CCCCC2)CC1,-60.8
10,CCCCC1=CC2=C(c3ccco3)C(=O)C(C)(OC(=O)c3ccc(OC)cc3)C(=O)C2=CN1CCCN(CC)CC (stereo not drawn),9.84
11,COc1ccccc1C(=O)NC(=O)CSc1cccc[n+]1[O-],9.54
12,O=C(/C=C/c1ccccc1[N+](=O)[O-])N1CCOCC1,15.3
13,Cn1c(=O)c2c(ncn2CC(O)CNc2ccc(F)cc2)n(C)c1=O (stereo not drawn),8.44
14,Cc1ccccc1C(=O)N/N=C1/SCC(=O)N1Cc1ccc2c(c1)OCO2,10.4
15,C[C@H](CCC(=O)NCC(=O)O)[C@H]1CC[C@H]2[C@@H]3[C@H](O)C[C@@H]4C[C@H](O)CC[C@]4(C)[C@H]3C[C@H](O)[C@]12C,17.6
16,Nc1nonc1-n1nnc(C(=O)N/N=C/c2cccnc2)c1CSc1ccccc1,7.83
17,O=C(C1CCCO1)N1CCN(C(=S)Nc2ccc(F)c(Cl)c2)CC1 (stereo not drawn),6
18,O=C(CCS(=O)(=O)c1ccc(Cl)cc1)Nc1ccccc1Br,7.47
19,COc1ccc(CCN2C(=O)C3C4CC(C5C(C(=O)NN)=NOC45)C3C2=O)cc1OC (stereo not drawn),12.7
20,COc1ccc(C2=NO[C@@H]3C(=O)N(c4ccc(C)cc4C)C(=O)[C@H]23)cc1OC,7.66
21,CCOC(=O)c1c(N/N=C/c2cccnc2)n[nH]c1C,-1.88
22,COC(=O)Cn1ncc(N(C)Cc2ccccc2)c(Cl)c1=O,10.3

row,SMILES,"hERG current change (%, negative = inhibition) at 1uM [%]"
1,Cc1cc(NC(=O)Cn2c(=O)n(CCCCC(=O)NC3CCN(Cc4ccccc4)CC3)c(=O)c3ccccc32)n[nH]1,25
2,O=C(CCS(=O)(=O)c1ccc(F)cc1)Nc1nnc(-c2ccco2)o1,20.1
3,CC(C)(C)C(=O)Nc1ccc(N2CCN(c3ccc(C(F)(F)F)cn3)CC2)nc1,0.0346
4,CC(=O)Nc1cccc(-c2csc(NCc3ccccc3)n2)c1.O=C(O)C(=O)O,3.07
5,Cc1cccc(-n2ncc3c(NCc4ccc5c(c4)OCO5)ncnc32)c1,13.1
6,CCc1ccccc1NC(=S)NC1CC2CCC(C1)N2Cc1ccc(F)cc1 (stereo not drawn),-14.2
7,COC(=O)c1ccccc1NC(=O)CSCC(=O)Nc1ccc(F)cc1,-10.7
8,c1cc(-c2cn(C[C@H]3CC[C@@H]([C@@H]4CC[C@H](Cn5cc(-c6ccsc6)nn5)O4)O3)nn2)cs1,-44
9,CN(C)CC/C=C1\c2ccccc2Sc2ccc(Cl)cc21.Cl,3.37
10,O=C(O)CNS(=O)(=O)c1cccc2nsnc12,-2.71
11,c1ccc(-n2ncc3c(NC4CCCCCC4)ncnc32)cc1,7.77
12,COCCCn1c(SCCc2ccccc2)nc2cc(OC)c(OC)cc2c1=N,-2.93
13,Cc1cccc(NC(=O)COC(=O)c2cc(C)oc2C)c1,-33.9
14,NC(=O)C[n+]1ccc(/C=N/O)cc1.[Cl-],2.85
15,Cc1cccc(NC(=O)/C(C#N)=C\c2cn(CC(=O)O)c3ccccc23)c1,12.4
16,O=C(Nc1ccn(Cc2ccccc2F)n1)c1ccc(COc2cc(Cl)ccc2Cl)o1,11.8
17,CCC(=O)OCCNc1cc(Sc2nc3ccccc3[nH]2)c2nonc2c1[N+](=O)[O-],11.4
18,COc1ccc(CCn2cnc(=O)c(C#N)c2C)cc1OC,13.5
19,Fc1ccc(F)c(NC(=S)NCCc2ccccc2)c1,9.13
20,O=S(=O)(N1CCOCC1)n1cnc2ccccc21,5.02
21,C=CCNc1ncnc2c1[nH]c1ccc(C)cc12,12.6
22,COc1ccc(C=C(C(C)=O)C(C)=O)cc1OC,7.71

row,SMILES,"hERG current change (%, negative = inhibition) at 1uM [%]"
1,CNC(=O)CSc1nnc(COc2ccc([N+](=O)[O-])cc2)n1C,10.2
2,CCc1[nH]nc2c1C(C(C)C)C(C#N)=C(N)O2 (stereo not drawn),15.3
3,O=C(Nc1nc2c(F)cc(F)cc2s1)c1ccco1,10.5
4,O=C(c1cc(-c2ccc(Cl)cc2)nc2ccccc12)N1CCOCC1,-4.94
5,N#Cc1ccsc1NC(=O)COC(=O)CCCSc1nc2ccccc2s1,4.32
6,Cc1ccc(NC(=S)N/N=C/c2ccc(OCCC(C)C)cc2)c(C)c1,2.34
7,CCC(CC)c1nnc(NC(=O)c2ccco2)s1,11.8
8,O=C(Cn1nnc(-c2ccccc2F)n1)Nc1ccc2c(c1)OCCO2,14.7
9,CC1CN(C(=O)CSc2nnc(-c3cccs3)n2N)CC(C)O1 (stereo not drawn),5.36
10,Oc1ccc(-c2csc(NCc3ccco3)n2)cc1,16.1
11,Cc1ccc(-n2nc(C)c(/C=N/n3c(C)n[nH]c3=S)c2Cl)cc1,6.67
12,COc1ccc(CCN2C(=NC(=O)CC(C)C)SC3CS(=O)(=O)CC32)cc1 (stereo not drawn),6.72
13,CCCC(=O)Nc1ccc(C(=O)NNC(=O)c2cccs2)cc1,17.9
14,O=C(Nc1nc(-c2cc(Cl)sc2Cl)cs1)c1cccs1,20.8
15,COc1ccc(C(=O)Oc2c(CN3CCOCC3)cc(Cl)c3cccnc23)cc1,3.9
16,COc1cccc(/C=c2\sc3nc(-c4cccs4)nn3c2=O)c1OC,12.4
17,Cc1cc(NC(=O)CCC(=O)N(Cc2cccnc2)C(C(=O)NC(C)(C)C)c2ccccc2Cl)no1 (stereo not drawn),14.7
18,O=C(CSc1nnc(SCc2ccccc2)s1)N/N=C/C=C/c1ccccc1[N+](=O)[O-],2.1
19,Cc1cc(NC(=O)COC(=O)COc2ccc(Cl)cc2C)c([N+](=O)[O-])cc1C,-2.59
20,Clc1ccc(-c2nnc3n2CCCCS3)cc1,3.51
21,COC(=O)CCCCCCCCC(O)CN1CCCCC1.Cl (stereo not drawn),15.2
22,Cc1cc(C)c(S(=O)(=O)N2CCOC2CNC(=O)C(=O)NCc2ccco2)c(C)c1 (stereo not drawn),2.74

row,SMILES,"hERG current change (%, negative = inhibition) at 1uM [%]"
1,O=C1CCCc2nc(N3CCN(C(=O)c4ccco4)CC3)ncc21,14.6
2,CC(C)(C)NC(=O)N1CCN(c2nc(-c3ccccc3)ns2)CC1,11.9
3,O=C1[C@@H]2[C@H](C(=O)N1n1cnnc1)[C@H]1C=C[C@@H]2C1,16.1
4,O=C1N(Cc2ccccc2)c2ccccc2C12OCCO2,11.7
5,CCn1cc(/C=C(\NC(=O)c2ccccc2OC)C(=O)NCCCn2ccnc2)c2ccccc21,9.06
6,Cc1nonc1NC(=O)CSc1ccc(-c2ccccc2)nn1,-7.67
7,Cc1cc(C)c(C#N)c(SCCS(=O)(=O)Cc2ccc(Cl)cc2)n1,3.36
8,Cc1ccc(-c2csc3nc(C)n(N)c(=O)c23)o1,18.8
9,O=C(COC(=O)CCc1ccc(S(=O)(=O)N2CCOCC2)cc1)NCc1ccccc1Cl,-2.39
10,Cc1nc(NC(=O)CN(C)S(=O)(=O)c2ccc(Cl)cc2)sc1C,10.2
11,CSc1ccccc1NC(=O)c1noc(C)c1[N+](=O)[O-],-1.6
12,COCC1CCN(Cc2c(C(=O)N3CCN(C4CCCCC4)CC3)nc3ccccn23)C1 (stereo not drawn),15.3
13,NNC(=O)CSc1c(-c2cccs2)[nH]c2ccccc12,7.15
14,CCOc1ccc2[nH]c(=O)c(CN(CC3COCCO3)C(=O)c3ccco3)cc2c1 (stereo not drawn),5.28
15,CC(=O)N1c2ccc(S(=O)(=O)NCC3CCC(C(=O)N4CC(C)CC(C)C4)CC3)cc2CC1C (stereo not drawn),15.4
16,Cc1nn(C)cc1[C@@H]1C[C@H]2CN(Cc3cccc(Cl)c3)C(=O)[C@]23CCCN13,-3.77
17,Cc1cc(NC(=O)CSc2nc3ccccc3c(=O)n2Cc2ccccc2)no1,11.5
18,CCOC(=O)c1c(NC(=O)CCN2CCOCC2)sc2c1CC(C)(C)OC2,-10.6
19,Cn1cc(C(=O)NC2C3CC4CC(C3)CC2C4)cn1 (stereo not drawn),13.6
20,CCOc1ccc(NC(=O)CN(C)C(=O)c2ccccc2OCCOc2ccccc2)cc1OCC,2.13
21,COc1ccccc1CCn1c(N)c(C#N)c2nc3ccccc3nc21,1.4
